Experimental data: PubChem BioAssay AID686979 (National Center for Advancing Translational Sciences (NCATS), 2013)
Several values for one entry are separate records, joined by “and”; a condition that tells them apart may be missing. Identical values can stand only once. The campaign covered roughly 420,000 compounds. About 50,000 (12%) were called active. The inconclusive results got no clear call from the source; some entries with a clear call stand among them for comparison. Calls follow the shape of the dose curve; as a rule, active = well fitted inhibition curve with a large enough effect; inconclusive = small, poorly fitted or top-dose-only effect; inactive = flat fitted curve, though single readings scatter. A potency beside an inconclusive call is a rough fit, not a confirmed value.

assay: qHTS for Inhibitors of human tyrosyl-DNA phosphodiesterase 1 (TDP1): qHTS in cells in presence of CPT; conditions: chicken DT40 Tdp1-/-;hTDP1 cells + 20 nM CPT, ATP luminescence, 48 h; activity change, negative = growth inhibition: at 46.2 µM (top of the series) unless noted; also: nearly all actives have a fitted effect of over 55% in size
Method in brief: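 Cell growth measured by CellTiter-Glo luminescence after a minimum 48 h, 37 C compound exposure with 20 nM CPT in Tdp1-knockout DT40 cells stably expressing hTDP1, seeded 400/well; qHTS titration format.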
% is scaled to controls: 0 for no effect and ±100 for the full control effect; potency is read from the fitted curve at half-maximal effect; tags tell the direction and shape of the fitted curve.

Row | SMILES | Potency | activity change, negative = growth inhibition
1 | Cc1[nH]c2ccccc2c1CN1CCCCC1 | active: 1.64 µM | 
2 | Cc1ccc(NP(=O)(Oc2ccccc2F)Oc2ccccc2F)cc1 | inconclusive: 29.1 µM [inhibitor, single point] | 
3 | C1CCCN(C2CCNCC2)CC1 | inconclusive: 6.51 µM [inhibitor, single point] | 
4 | O=C(c1cn(Cc2ccccc2)c2ccccc12)C1CC1 | inconclusive: 23.1 µM [inhibitor, partial curve] | 
5 | CCCCn1c(N)c(C(=O)OCC2CCCO2)c2nc3ccccc3nc21 (configuration not stated) | active: 18.4 µM | 
6 | COc1ccccc1C(=O)C1CCCN(Cc2cnc(C)s2)C1 (configuration not stated) | inconclusive: 18.4 µM [inhibitor, single point] | 
7 | CC(O)(CS(=O)(=O)c1cccc(C(F)(F)F)c1)C(=O)Nc1cccc(C(F)(F)F)c1 (configuration not stated) | inconclusive: 14.6 µM [inhibitor, partial curve] | 
8 | C[C@@H]1O[C@@H](O[C@@H]2C=C3CCC4C(CC[C@]5(C)[C@@H](c6ccc(=O)oc6)CC[C@]45O)[C@@]3(C)CC2)[C@H](O)[C@H](O)[C@H]1O (some centres not stated) | active: 0.058 µM | 
9 | CCOCCCN=Cc1c(O)n(Cc2ccccc2)c(=O)[nH]c1=O | inconclusive: 16.4 µM [inhibitor, single point] | 
10 | COC1C(O)C(C)OC(OC2CCC3(C=O)C(CCC4C3CCC3(C)C(C5=CC(=O)OC5)CCC43O)C2)C1O (configuration not stated) | active: 0.206 µM | 
11 | Cn1c(O)c(C2=NN(C(=O)CCl)C(c3ccccc3)C2)c(=O)n(C)c1=O (configuration not stated) | inconclusive: 20.6 µM [inhibitor, single point] | 
12 | [O]=[Sb]([OH])([OH])[c]1ccccc1 |  | inactive: 3.47%
13 | COC(=O)C1=C(c2cccc(OCc3ccccc3)c2)C[C@@H]2CC[C@H]1N2C(=O)NCc1ccccc1 | inconclusive: 23.1 µM [inhibitor, single point] | 
14 | C=C1C/C(=C/C)C(=O)O[C@@H]2CCN3CC=C(COC(=O)[C@]1(C)O)[C@H]23 | inconclusive: 23.1 µM [inhibitor, single point] | 
15 | c1ccc(Nc2ccc(Nc3ccccc3)cc2)cc1 | inconclusive: 23.1 µM [inhibitor, single point] | 
16 | CCCC(C)c1nnc(NC(=O)CCS(=O)(=O)c2ccccc2)s1 (configuration not stated) | active: 7.31 µM | 
17 | O=C(COc1ccc(Cl)cc1)N(c1ccccc1Cl)C1CN2CCC1CC2 (configuration not stated) | active: 23.1 µM | 
18 | C[S+](CC[C@H](N)C(=O)O)C[C@H]1O[C@@H](n2cnc3c(N)ncnc32)[C@H](O)[C@@H]1O (some centres not stated) | inconclusive: 13.3 µM [inhibitor, partial curve] | 
19 | COC(=O)C1=C(c2cccc(OC)c2OC)C[C@@H]2CC[C@H]1N2C(=O)N1CCC(C)CC1 | inconclusive: 29.1 µM [inhibitor, single point] | 
20 | COC(=O)C1=C(c2cccc(OCc3ccccc3)c2)C[C@@H]2CC[C@H]1N2C(=O)NCc1ccc(C(C)(C)C)cc1 | inconclusive: 23.1 µM [inhibitor, single point] | 
21 | CN(C)c1ccc(-[n+]2c(-c3ccccc3)cc(-c3ccccc3)cc2-c2ccccc2)cc1 | active: 0.326 µM | 
22 | CC1CCC(C(C)C)C(OC(=O)COC(=O)c2ccccc2N)C1 (configuration not stated) | inconclusive: 23.1 µM [inhibitor, partial curve] | 
23 | NS(=O)(=O)c1ccc(N=Nc2c(O)[nH]c(=S)[nH]c2=O)cc1 |  | inactive: 1.63%

Row | SMILES | Potency | activity change, negative = growth inhibition
24 | O=C1CC(N2CC=C(c3ccc(F)cc3)CC2)C(=O)N1c1ccc(F)cc1 (configuration not stated) | inconclusive: 20.6 µM [inhibitor, partial curve] | 
25 | CCCc1nnc(NC(=O)CCC(=O)N2CCN(CCOC(c3ccccc3)c3ccccc3)CC2)s1 |  | inconclusive: -32.8% [inhibitor]
26 | CC(=O)c1ccc2c(c1)C1C(Cl)C(Sc3ccccc3[N+](=O)[O-])CC1C(C(=O)O)N2 (configuration not stated) | inconclusive: 29.1 µM [inhibitor, single point] | 
27 | O=C(NCCc1ccc(Cl)cc1)c1ccc(Nc2nc3ccccc3n3nnnc23)cc1 | inconclusive: 25.9 µM [inhibitor, single point] | 
28 | O=C(Nc1ccccc1OC(=O)N1CCCCC1)N1CCCCC1 |  | inactive: 11.9%
29 | CCOc1ccc(CNC(=O)CSc2c3c(nc4cc(Cl)ccc24)CCCC3)cc1 | inconclusive: 20.6 µM [inhibitor, single point] | 
30 | CN(C)C(=O)Oc1ccc(OCc2nc3ccccc3[nH]2)cc1 | active: 9.2 µM | 
31 | CCOc1cccc(OCC)c2c(C)[n+](CC3CCCO3)c(C)c1-2 (configuration not stated) | inconclusive: 18.4 µM [inhibitor, single point] | 
32 | Cc1ccc(-n2c(=S)[nH]c3ccccc3c2=O)cc1F |  | inactive: -26.2%
33 | CC1OC(O[C@@H]2C(O)CC(O[C@@H]3C(O)C[C@@H](OC4CC[C@]5(C)[C@H](CC[C@H]6[C@@H]5CC[C@]5(C)C(C7=CC(=O)OC7)C(O)C[C@@]65O)C4)OC3C)OC2C)CC(O)C1O (some centres not stated) |  | inactive: 0.278%
34 | CCc1ccc(NP(=O)(Oc2ccccc2F)Oc2ccccc2F)cc1 | inconclusive: 25.9 µM [inhibitor, single point] | 
35 | O=P(N1CC1)(N1CC1)N1CCc2ccccc21 | active: 7.31 µM | 
36 | CCOC(=O)[C@]12Cc3cc(OC)ccc3[C@H]1N(CC(=O)OC)C(=O)c1cc(OC)ccc12 | active: 18.4 µM | 
37 | COc1cc(OC)cc(-c2sc3ccc(OC)cc3c2-c2ccc(OCCN3CCOCC3)cc2)c1 | inconclusive: 23.1 µM [inhibitor, single point] | 
38 | Oc1c(Br)cc(Br)cc1CN1CCN(Cc2ccccc2)CC1 |  | inconclusive: -30.3% [inhibitor]
39 | Cc1ccc(C(C)C)c(OCC#CCN2CCCC2)c1 |  | inactive: -28.4%
40 | CC1C=CCCC12C(=O)NC(=O)NC2=O (configuration not stated) |  | inactive: -26.4%
41 | O=C(Nc1ccc(Cl)c(C(F)(F)F)c1)c1ccc2c(c1)CCN2S(=O)(=O)c1ccccc1 | active: 9.2 µM | 
42 | CN1CCC2(CC1)C(C#N)=C(N)NC(S)=C2C#N | inconclusive: 29.1 µM [inhibitor, single point] | 
43 | COc1ccc(CN(CCc2c[nH]c3ccccc23)Cc2ccc(OC)cc2)cc1 | active: 16.4 µM | 
44 | O=C(c1ccco1)N1Cc2ccccc2-n2nncc2C1 |  | inactive: 19.4%
45 | CCN(Cc1ccccc1)S(=O)(=O)c1ccc2c(c1)CCCN2C(C)=O | inconclusive: 18.4 µM [inhibitor, single point] | 
46 | COc1ccc(S(=O)(=O)N(C)C[C@H]2OCCCC[C@H](C)Oc3ccc(N(C)C)cc3C(=O)N([C@H](C)CO)C[C@@H]2C)cc1 | inconclusive: 29.1 µM [inhibitor, single point] | 

Row | SMILES | Potency | activity change, negative = growth inhibition
47 | COCCn1c(SCc2ccccc2Cl)nc2c1c(=O)[nH]c(=O)n2C | inconclusive: 20.6 µM [inhibitor, single point] | 
48 | CCCCCC[C@H]1C(=O)O[C@H](C)[C@H](NC(=O)c2cccc(NC=O)c2O)C(=O)O[C@@H](C)[C@@H]1OC(=O)CC(C)C | active: 0.0168 µM | 
49 | Cc1c(C=O)c2ccccc2n1Cc1ccccc1F |  | inactive: 6.62%
50 | CCOC(=O)[C@]12Cc3cc(OC)ccc3[C@H]1N(Cc1ccccc1)C(=O)c1cc(OC)ccc12 | inconclusive: 29.1 µM [inhibitor, single point] | 
51 | COc1c(C)cc(C(=O)C2CCCN(Cc3ccccn3)C2)cc1C (configuration not stated) | inconclusive: 16.4 µM [inhibitor, single point] | 
52 | CC1O[C@@H](OC2CC[C@@]3(C=O)C4CC[C@]5(C)C(C6=CC(=O)OC6)CC[C@@]5(O)C4CC[C@]3(O)C2)C(O)C(O)C1O (some centres not stated) | active: 0.461 µM | 
53 | COC(=O)C1=C(c2ccc3ccccc3c2)C[C@@H]2CC[C@H]1N2C(=O)N1CCCC1 | active: 2.91 µM | 
54 | CN1c2ccc([N+](=O)[O-])cc2CC2(C(=O)NC(=O)NC2=O)C1c1ccccc1 (configuration not stated) | inconclusive: 16.4 µM [inhibitor, single point] | 
55 | CCC(C)NS(=O)(=O)c1ccc(OCC(=O)N2CCN(CC)CC2)cc1 (configuration not stated) |  | inactive: 0.0265%
56 | CCOC(=O)c1cccc(C2=C(CNC(=O)c3cccnc3)[C@H]3CC[C@@H](C2)N3Cc2ccccc2)c1 | inconclusive: 23.1 µM [inhibitor, single point] | 
57 | CCc1ccc(N(CC)C(=O)CCn2cnc3onc(-c4ccc(F)cc4)c3c2=O)cc1 | active: 16.4 µM | 
58 | CCOC(=O)c1ccc(NC(=O)CSc2ccc(-c3cccnc3)nn2)cc1 | inconclusive: 25.9 µM [inhibitor, single point] | 
59 | Cc1ccc(NP(=O)(Nc2ccc(C)cc2)Oc2ccccc2)cc1 |  | inactive: 4.94%
60 | c1ccc2c(CN3CCCCC3)c[nH]c2c1 | active: 8.2 µM | 
61 | CCCc1ccc(OCC(=O)Nc2ccc(Cl)cc2C(=O)c2ccccc2)cc1 |  | inactive: -18.6%
62 | CN(C)C(=O)Oc1c(Cl)cc(Cl)c2cccnc12 |  | inactive: 1.28%
63 | CCOC(=O)[C@]12Cc3ccccc3[C@H]1N(CCC(=O)OC)C(=O)c1cc(OC)ccc12 | inconclusive: 20.6 µM [inhibitor, single point] | 
64 | Cc1cccc(Cn2c(=O)n(CC3CCC(C(=O)N4CCC(C)CC4)CC3)c(=O)c3sccc32)c1 (configuration not stated) | active: 20.6 µM | 
65 | OCCN1CCN(CC/C=C2/c3ccccc3Sc3ccc(Cl)cc32)CC1 | inconclusive: 12.8 µM [inhibitor, single point] and inconclusive: 18.4 µM [inhibitor, single point] | 
66 | CCc1ccc(-c2nc(CSCC(=O)N3CCN(c4ccc(F)cc4)CC3)c(C)o2)cc1 | active: 20.6 µM | 
67 | CN1C(=O)N(C)C(=O)C2(Cc3c(nc4ccccn4c3=O)N3CCc4ccccc4C32)C1=O (configuration not stated) | inconclusive: 18.4 µM [inhibitor, partial curve] | 
